In the supplement of paper PMC8728848:
The other results are listed elsewhere or left out.

Columns and labels:
Assay in all cases: glycan array binding signal (z-score within array); higher = stronger binding
Conditions in all cases: glycan notation: IUPAC condensed, linker removed
[1] = biological target: Neu5Ac(a2-6)Gal(b1-4)GlcNAc(b1-2)Man(a1-3)[GlcNAc(b1-4)][Neu5Ac(a2-6)Gal(b1-4)GlcNAc(b1-2)Man(a1-6)]Man(b1-4)GlcNAc(b1-4)GlcNAc
Procedure, shortened: (§1)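 Glycan array binding is given as a within-array Z-score, which can be read as non-binding when negative. The arrays, 3228 of them, came from the Consortium for Functional Glycomics database and were retained only where the protein sequence was available. Z-scores were averaged across arrays of the same protein sequence at different concentrations or buffers and across linkers.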

[2] = biological target: Neu5Ac(a2-6)Gal(b1-4)GlcNAc(b1-2)Man(a1-3)[Man(a1-6)]Man(b1-4)GlcNAc(b1-4)GlcNAc
Procedure, shortened: as §1

[3] = biological target: Neu5Ac(a2-6)Gal(b1-4)GlcNAc(b1-2)Man(a1-3)[Neu5Ac(a2-3)Gal(b1-4)GlcNAc(b1-2)Man(a1-6)]Man(b1-4)GlcNAc(b1-4)GlcNAc
Procedure, shortened: as §1

[4] = biological target: Neu5Ac(a2-6)Gal(b1-4)GlcNAc(b1-2)Man(a1-3)[Neu5Ac(a2-6)Gal(b1-4)GlcNAc(b1-2)Man(a1-6)]Man(b1-4)GlcNAc(b1-4)GlcNAc
Procedure, shortened: as §1

[5] = biological target: Neu5Ac(a2-6)Gal(b1-4)GlcNAc(b1-2)Man(a1-3)[Neu5Ac(a2-6)Gal(b1-4)GlcNAc(b1-2)Man(a1-6)]Man(b1-4)GlcNAc(b1-4)[Fuc(a1-6)]GlcNAc
Procedure, shortened: as §1

[6] = biological target: Neu5Ac(a2-6)Gal(b1-4)GlcNAc(b1-2)Man(a1-6)Man(b1-4)GlcNAc(b1-4)GlcNAc
Procedure, shortened: as §1

[7] = biological target: Neu5Ac(a2-6)Gal(b1-4)GlcNAc(b1-2)Man(a1-6)[Gal(b1-4)GlcNAc(b1-2)Man(a1-3)]Man(b1-4)GlcNAc(b1-4)GlcNAc
Procedure, shortened: as §1

[8] = biological target: Neu5Ac(a2-6)Gal(b1-4)GlcNAc(b1-2)Man(a1-6)[GlcNAc(b1-2)Man(a1-3)]Man(b1-4)GlcNAc(b1-4)GlcNAc
Procedure, shortened: as §1

[9] = biological target: Neu5Ac(a2-6)Gal(b1-4)GlcNAc(b1-2)Man(a1-6)[Man(a1-3)]Man(b1-4)GlcNAc(b1-4)GlcNAc
Procedure, shortened: as §1

[10] = biological target: Neu5Ac(a2-6)Gal(b1-4)GlcNAc(b1-2)[Neu5Ac(a2-6)Gal(b1-4)GlcNAc(b1-4)]Man(a1-3)[GlcNAc(b1-4)][Neu5Ac(a2-6)Gal(b1-4)GlcNAc(b1-2)[Neu5Ac(a2-6)Gal(b1-4)GlcNAc(b1-6)]Man(a1-6)]Man(b1-4)GlcNAc(b1-4)GlcNAc
Procedure, shortened: as §1

[11] = biological target: Neu5Ac(a2-6)Gal(b1-4)GlcNAc(b1-2)[Neu5Ac(a2-6)Gal(b1-4)GlcNAc(b1-4)]Man(a1-3)[GlcNAc(b1-4)][Neu5Ac(a2-6)Gal(b1-4)GlcNAc(b1-4)Man(a1-6)]Man(b1-4)GlcNAc(b1-4)GlcNAc
Procedure, shortened: as §1

[12] = biological target: Neu5Ac(a2-6)Gal(b1-4)GlcNAc(b1-2)[Neu5Ac(a2-6)Gal(b1-4)GlcNAc(b1-6)]Man(a1-6)[Neu5Ac(a2-6)Gal(b1-4)GlcNAc(b1-2)Man(a1-3)][GlcNAc(b1-4)]Man(b1-4)GlcNAc(b1-4)GlcNAc
Procedure, shortened: as §1

[13] = biological target: Neu5Ac(a2-6)Gal(b1-4)GlcNAc(b1-3)Gal(b1-3)GlcNAc
Procedure, shortened: as §1

[14] = biological target: Neu5Ac(a2-6)Gal(b1-4)GlcNAc(b1-3)Gal(b1-4)GlcNAc
Procedure, shortened: as §1

[15] = biological target: Neu5Ac(a2-6)Gal(b1-4)GlcNAc(b1-3)Gal(b1-4)GlcNAc(b1-2)Man(a1-3)[Neu5Ac(a2-6)Gal(b1-4)GlcNAc(b1-3)Gal(b1-4)GlcNAc(b1-2)Man(a1-6)]GalNAc
Procedure, shortened: as §1

[16] = biological target: Neu5Ac(a2-6)Gal(b1-4)GlcNAc(b1-3)Gal(b1-4)GlcNAc(b1-3)Gal(b1-4)GlcNAc
Procedure, shortened: as §1

[17] = biological target: Neu5Ac(a2-6)Gal(b1-4)GlcNAc(b1-3)Gal(b1-4)GlcNAc(b1-3)Gal(b1-4)GlcNAc(b1-2)Man(a1-3)[Neu5Ac(a2-6)Gal(b1-4)GlcNAc(b1-3)Gal(b1-4)GlcNAc(b1-3)Gal(b1-4)GlcNAc(b1-2)Man(a1-6)]GalNAc
Procedure, shortened: as §1

[18] = biological target: Neu5Ac(a2-6)Gal(b1-4)GlcNAc(b1-3)Gal(b1-4)GlcNAc(b1-3)GalNAc
Procedure, shortened: as §1

[19] = biological target: Neu5Ac(a2-6)Gal(b1-4)GlcNAc(b1-3)Gal(b1-4)GlcNAc(b1-3)[Neu5Ac(a2-6)Gal(b1-4)GlcNAc(b1-3)Gal(b1-4)GlcNAc(b1-6)]GalNAc
Procedure, shortened: as §1

[20] = biological target: Neu5Ac(a2-6)Gal(b1-4)GlcNAc(b1-3)Gal(b1-4)GlcNAc(b1-6)[Gal(b1-3)]GalNAc
Procedure, shortened: as §1

[21] = biological target: Neu5Ac(a2-6)Gal(b1-4)GlcNAc(b1-3)Gal(b1-4)[Fuc(a1-3)]GlcNAc(b1-3)Gal(b1-4)[Fuc(a1-3)]GlcNAc
Procedure, shortened: as §1

[22] = biological target: Neu5Ac(a2-6)Gal(b1-4)GlcNAc(b1-3)GalNAc
Procedure, shortened: as §1

[23] = biological target: Neu5Ac(a2-6)Gal(b1-4)GlcNAc(b1-3)[Neu5Ac(a2-6)Gal(b1-4)GlcNAc(b1-6)]GalNAc
Procedure, shortened: as §1

[24] = biological target: Neu5Ac(a2-6)Gal(b1-4)GlcNAc(b1-6)GalNAc
Procedure, shortened: as §1

[25] = biological target: Neu5Ac(a2-6)Gal(b1-4)GlcNAc(b1-6)[Gal(b1-3)GlcNAc(b1-3)]Gal(b1-4)Glc
Procedure, shortened: as §1

[26] = biological target: Neu5Ac(a2-6)Gal(b1-4)GlcNAc(b1-6)[Gal(b1-3)]GalNAc
Procedure, shortened: as §1

[27] = biological target: Neu5Ac(a2-6)Gal(b1-4)GlcNAc6S
Procedure, shortened: as §1

Neu5Ac(a2-6)GalNAc = biological target: Neu5Ac(a2-6)GalNAc
Procedure, shortened: as §1

[28] = biological target: Neu5Ac(a2-6)GalNAc(b1-4)GlcNAc
Procedure, shortened: as §1

[29] = biological target: Neu5Ac(a2-6)GalNAc(b1-4)GlcNAc6S
Procedure, shortened: as §1

[30] = biological target: Neu5Ac(a2-6)GlcNAc(b1-4)GlcNAc
Procedure, shortened: as §1

[31] = biological target: Neu5Ac(a2-6)GlcNAc(b1-4)GlcNAc(b1-4)GlcNAc
Procedure, shortened: as §1

Neu5Ac(a2-8)Neu5Ac = biological target: Neu5Ac(a2-8)Neu5Ac
Procedure, shortened: as §1

[32] = biological target: Neu5Ac(a2-8)Neu5Ac(a2-3)Gal(b1-3)GalNAc(b1-4)[Neu5Ac(a2-3)]Gal(b1-4)Glc
Procedure, shortened: as §1

[33] = biological target: Neu5Ac(a2-8)Neu5Ac(a2-3)Gal(b1-3)GalNAc(b1-4)[Neu5Ac(a2-8)Neu5Ac(a2-3)]Gal(b1-4)Glc
Procedure, shortened: as §1

[34] = biological target: Neu5Ac(a2-8)Neu5Ac(a2-3)Gal(b1-4)Glc
Procedure, shortened: as §1

[35] = biological target: Neu5Ac(a2-8)Neu5Ac(a2-3)Gal(b1-4)GlcNAc
Procedure, shortened: as §1

[36] = biological target: Neu5Ac(a2-8)Neu5Ac(a2-3)[Gal(b1-3)GalNAc(b1-4)]Gal(b1-4)Glc
Procedure, shortened: as §1

[37] = biological target: Neu5Ac(a2-8)Neu5Ac(a2-3)[GalNAc(b1-4)]Gal(b1-4)Glc
Procedure, shortened: as §1

[38] = biological target: Neu5Ac(a2-8)Neu5Ac(a2-8)Neu5Ac
Procedure, shortened: as §1

[39] = biological target: Neu5Ac(a2-8)Neu5Ac(a2-8)Neu5Ac(a2-3)Gal(b1-4)Glc
Procedure, shortened: as §1

[40] = biological target: Neu5Ac(a2-8)Neu5Ac(a2-8)Neu5Ac(a2-3)[Gal(b1-3)GalNAc(b1-4)]Gal(b1-4)Glc
Procedure, shortened: as §1

[41] = biological target: Neu5Ac(a2-8)Neu5Ac(a2-8)Neu5Ac(a2-3)[GalNAc(b1-4)]Gal(b1-4)Glc
Procedure, shortened: as §1

[42] = biological target: Neu5Ac(a2-8)Neu5Ac(a2-8)Neu5Ac(a2-8)Neu5Ac(a2-3)[GalNAc(b1-4)]Gal(b1-4)Glc
Procedure, shortened: as §1

[43] = biological target: Neu5Ac(a2-8)Neu5Gc(a2-3)Gal(b1-4)GlcNAc
Procedure, shortened: as §1

[44] = biological target: Neu5Ac(b2-6)Gal(b1-4)GlcNAc
Procedure, shortened: as §1

Neu5Ac(b2-6)GalNAc = biological target: Neu5Ac(b2-6)GalNAc
Procedure, shortened: as §1

[45] = biological target: Neu5Ac9Ac(a2-3)Gal(b1-3)GlcNAc
Procedure, shortened: as §1

[46] = biological target: Neu5Ac9Ac(a2-3)Gal(b1-4)GlcNAc
Procedure, shortened: as §1

[47] = biological target: Neu5Ac9Ac(a2-6)Gal(b1-4)GlcNAc
Procedure, shortened: as §1

[48] = biological target: Neu5Gc(a2-3)Gal(b1-3)GlcNAc
Procedure, shortened: as §1

[49] = biological target: Neu5Gc(a2-3)Gal(b1-3)[Fuc(a1-4)]GlcNAc
Procedure, shortened: as §1

Neu5Gc(a2-3)Gal(b1-4)Glc = biological target: Neu5Gc(a2-3)Gal(b1-4)Glc
Procedure, shortened: as §1

[50] = biological target: Neu5Gc(a2-3)Gal(b1-4)GlcNAc
Procedure, shortened: as §1

[51] = biological target: Neu5Gc(a2-3)Gal(b1-4)GlcNAc(b1-3)Gal(b1-4)GlcNAc(b1-2)Man(a1-3)[Neu5Gc(a2-3)Gal(b1-4)GlcNAc(b1-3)Gal(b1-4)GlcNAc(b1-2)Man(a1-6)]Man(b1-4)GlcNAc(b1-4)GlcNAc
Procedure, shortened: as §1

[52] = biological target: Neu5Gc(a2-3)Gal(b1-4)[Fuc(a1-3)]GlcNAc
Procedure, shortened: as §1

[53] = biological target: Neu5Gc(a2-6)Gal(b1-4)GlcNAc
Procedure, shortened: as §1

Neu5Gc(a2-6)GalNAc = biological target: Neu5Gc(a2-6)GalNAc
Procedure, shortened: as §1

[54] = biological target: Neu5Gc(a2-8)Neu5Ac(a2-3)Gal(b1-4)GlcNAc
Procedure, shortened: as §1

[55] = biological target: Neu5Gc(a2-8)Neu5Gc(a2-3)Gal(b1-4)GlcNAc
Procedure, shortened: as §1

[56] = biological target: Neu5Gc(a2-8)Neu5Gc(a2-3)Gal(b1-4)GlcNAc(b1-3)Gal(b1-4)GlcNAc
Procedure, shortened: as §1

[57] = biological target: Neu5Gc(a2-8)Neu5Gc(a2-6)Gal(b1-4)GlcNAc
Procedure, shortened: as §1

[58] = biological target: Neu5Gc(b2-6)Gal(b1-4)GlcNAc
Procedure, shortened: as §1

Measured: glycan array binding signal (z-score)

B1: Banana lectin (Musa acuminata) (protein)
chain: MNGAIKVGAWGGNGGSAFDMGPAYRIISVKIFSGDVVDAVDVTFTYYGKTETRHFGGSGGTPHEIVLQEGEYLVGMKGEFGNYHGVVVVGKLGFSTNKKSYGPFGNTGGTPFSLPIAAGKISGFFGRGGDFIDAIGVYLEP
-0.187: [6] | [51]
-0.192: [1] | [11] | [26] | Neu5Ac(a2-6)GalNAc | [38] | [41] | [57]
-0.197: [27] | Neu5Ac(a2-8)Neu5Ac | [34] | [44]
-0.18: [49]
-0.195: [14] | [30] | Neu5Gc(a2-3)Gal(b1-4)Glc | [50] | [56]
-0.188: [53]
-0.191: [19] | [32]
-0.155: [15]
-0.159: [7] | [8]
-0.168: [5]
-0.179: [17]
-0.16: [4]
-0.193: [10] | [16] | [18] | [24] | [36] | [40] | [45] | [47] | [48] | [58]
2.13: [9]
-0.146: [21]
-0.189: [23] | [42]
-0.19: [22] | [37]
-0.145: [3]
0.857: [2]
-0.196: [35] | [43] | Neu5Gc(a2-6)GalNAc | [55]
-0.194: all other assays above
